Tests used:
[1] = target: T1, LD-3×Flag, full-length, from yeast (Arabidopsis thaliana, UniProt Q38796 1-953); experiment: pull-down; purified Flag-tagged protein (from yeast) mixed with purified GST-tagged protein (from E. coli); Glutathione Sepharose 4B, 4°C, 1 h; 20 mM Tris-HCl pH 7.6, 150 mM NaCl, 1 mM DTT; blots with Flag and GST antibodies; conditions: both partners purified
T1 construct: full-length cDNA in frame with 3×Flag in pAT424; source: also co-expressed with APRF1-Myc
T1 sequence (looked up): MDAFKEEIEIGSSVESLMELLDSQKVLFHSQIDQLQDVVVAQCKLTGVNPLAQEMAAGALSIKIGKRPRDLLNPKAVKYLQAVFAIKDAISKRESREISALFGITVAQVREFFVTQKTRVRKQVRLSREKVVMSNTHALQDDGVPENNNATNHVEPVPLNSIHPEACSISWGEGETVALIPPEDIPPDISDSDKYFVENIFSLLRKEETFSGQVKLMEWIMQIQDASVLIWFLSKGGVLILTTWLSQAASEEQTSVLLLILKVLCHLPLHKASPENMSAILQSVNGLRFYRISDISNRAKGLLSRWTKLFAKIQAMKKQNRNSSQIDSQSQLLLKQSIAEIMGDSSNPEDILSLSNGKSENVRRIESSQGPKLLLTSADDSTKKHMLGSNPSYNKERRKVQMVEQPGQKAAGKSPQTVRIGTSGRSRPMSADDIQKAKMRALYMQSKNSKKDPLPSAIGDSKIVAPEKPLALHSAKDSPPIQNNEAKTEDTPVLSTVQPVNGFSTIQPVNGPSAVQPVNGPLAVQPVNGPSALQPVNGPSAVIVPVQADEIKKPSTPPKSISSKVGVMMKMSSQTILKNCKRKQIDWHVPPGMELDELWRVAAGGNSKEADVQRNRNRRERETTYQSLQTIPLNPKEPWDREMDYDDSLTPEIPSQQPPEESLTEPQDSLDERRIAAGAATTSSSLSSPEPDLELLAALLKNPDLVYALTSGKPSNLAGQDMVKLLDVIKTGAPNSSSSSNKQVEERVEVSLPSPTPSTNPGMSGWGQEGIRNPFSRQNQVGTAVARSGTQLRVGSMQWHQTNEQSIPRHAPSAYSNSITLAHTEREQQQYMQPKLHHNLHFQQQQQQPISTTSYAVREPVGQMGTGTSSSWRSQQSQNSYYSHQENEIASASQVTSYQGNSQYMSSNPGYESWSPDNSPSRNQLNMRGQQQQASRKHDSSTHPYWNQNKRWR

GST-SDG26, full-length = target: T2, GST-SDG26, full-length (Arabidopsis thaliana, UniProt Q84WW6 1-492); experiment: as above; conditions: both partners purified
T2 construct: SDG26, Arabidopsis thaliana; cDNA encoding full-length SDG26 in pGEX-6P-1; source: E. coli Transetta (DE3), purified (Glutathione Sepharose 4B)
T2 sequence (looked up): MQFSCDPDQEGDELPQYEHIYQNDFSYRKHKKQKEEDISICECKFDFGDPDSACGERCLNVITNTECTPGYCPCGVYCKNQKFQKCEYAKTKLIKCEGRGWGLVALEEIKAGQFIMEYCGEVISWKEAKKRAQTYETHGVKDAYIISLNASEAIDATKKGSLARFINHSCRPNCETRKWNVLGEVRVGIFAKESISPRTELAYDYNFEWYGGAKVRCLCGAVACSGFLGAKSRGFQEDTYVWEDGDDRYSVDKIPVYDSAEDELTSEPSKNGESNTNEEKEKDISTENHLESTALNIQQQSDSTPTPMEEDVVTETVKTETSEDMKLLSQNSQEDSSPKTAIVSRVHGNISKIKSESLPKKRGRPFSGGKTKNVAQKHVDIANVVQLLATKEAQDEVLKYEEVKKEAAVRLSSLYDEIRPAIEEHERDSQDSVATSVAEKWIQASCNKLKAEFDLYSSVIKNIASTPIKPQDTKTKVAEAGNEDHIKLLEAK

B1: GST-FLD, full-length (natural protein, Arabidopsis thaliana, UniProt Q9CAE3 1-789, looked up)
chain: MVSFSAPKKRRRGRSQRSMSSLNSLPVPNVGLLPGNSNFVSSSASSSGRFNVEVVNGSNQTVKSYPGIGDEIITINKEATTEALLALTAGFPADSLTEEEIEFGVVPIVGGIEQVNYILIRNHIISKWRENISSWVTKEMFLNSIPKHCSSLLDSAYNYLVTHGYINFGIAQAIKDKFPAQSSKSSVIIVGAGLSGLAAARQLMRFGFKVTVLEGRKRPGGRVYTKKMEANRVGAAADLGGSVLTGTLGNPLGIIARQLGSSLYKVRDKCPLYRVDGKPVDPDVDIKVEVAFNQLLDKASKLRQLMGDVSMDVSLGAALETFRQVSGNDVATEEMGLFNWHLANLEYANAGLVSKLSLAFWDQDDPYDMGGDHCFLPGGNGRLVQALAENVPILYEKTVQTIRYGSNGVKVTAGNQVYEGDMVLCTVPLGVLKNGSIKFVPELPQRKLDCIKRLGFGLLNKVAMLFPYVFWSTDLDTFGHLTEDPNYRGEFFLFYSYAPVAGGALLIALVAGEAAHKFETMPPTDAVTRVLHILRGIYEPQGINVPDPLQTVCTRWGGDPFSLGSYSNVAVGASGDDYDILAESVGDGRLFFAGEATTRRYPATMHGAFVTGLREAANMAQSAKARGIRKRIDRNPSRNAHSCAILLADLFRDPDLEFGSFCIIFSRRNPDPKSPAILRVTLSEPRKRNEDPKADQHSNKILFQQLQSHFNQQQQIQVYTLLTRQQALDLREVRGGDEKRLYYLCETLGVKLVGRKGLGVGADSVIASIKAERTGRKLPSSSTSGTKSG
notes: FLD (FLOWERING LOCUS D), Arabidopsis thaliana; cDNA encoding full-length FLD in pGEX-6P-1; source: E. coli Transetta (DE3), purified (Glutathione Sepharose 4B)
- binding result [1]: binds

B2: GST-EFL2, full-length (natural protein, Arabidopsis thaliana, UniProt Q94BS8 1-119, looked up)
chain: MESRMEGDVYSGFGERYQMDGKLLQNFQKSFVQVQDILDQNRLLINEINQNHESKQADHLGRNVGLIRELNNNIRTVASLYGDLSHSFARSVDASSEGESTGTLKSDGKANNQKRFRSG
notes: EFL2, ELF4-like protein, Arabidopsis thaliana; cDNA encoding full-length EFL2 in pGEX-6P-1; source: E. coli Transetta (DE3), purified (Glutathione Sepharose 4B)
- binding result [1]: binds

B3: GST-EFL4, full-length (natural protein, Arabidopsis thaliana, UniProt Q570U6 1-114, looked up)
chain: MEGDVLSGFGDRHNMDGKLLQSFQKSFVDVQDILDQNRLLINEINQNHESKQPDNLGRNVGLIKELNNNIRRVASLYGDLSHSFARSVDASSEGESSGTLKSDGKANQKRFRSG
notes: EFL4, ELF4-like protein, Arabidopsis thaliana; cDNA encoding full-length EFL4 in pGEX-6P-1; source: E. coli Transetta (DE3), purified (Glutathione Sepharose 4B)
- binding result [1]: binds

B4: EFL2-3×Flag, full-length, from yeast (natural protein, Arabidopsis thaliana, UniProt Q94BS8 1-119, looked up)
chain: MESRMEGDVYSGFGERYQMDGKLLQNFQKSFVQVQDILDQNRLLINEINQNHESKQADHLGRNVGLIRELNNNIRTVASLYGDLSHSFARSVDASSEGESTGTLKSDGKANNQKRFRSG
notes: EFL2, ELF4-like protein, Arabidopsis thaliana; full-length cDNA in frame with 3×Flag in pAT424
- binding result (GST-SDG26, full-length): binds

B5: EFL4-3×Flag, full-length, from yeast (natural protein, Arabidopsis thaliana, UniProt Q570U6 1-114, looked up)
chain: MEGDVLSGFGDRHNMDGKLLQSFQKSFVDVQDILDQNRLLINEINQNHESKQPDNLGRNVGLIKELNNNIRRVASLYGDLSHSFARSVDASSEGESSGTLKSDGKANQKRFRSG
notes: EFL4, ELF4-like protein, Arabidopsis thaliana; full-length cDNA in frame with 3×Flag in pAT424
- binding result (GST-SDG26, full-length): binds
